# This is one part of the list.
# B1: SAOUHSC 00176 (Staphylococcus aureus) (protein)
# chain: MSKILKCITLAVVMLLIVTACGPNRSKEDIDKALNKDNSKDKPNQLTMWVDGDKQMAFYKKITDQYTKKTGIKVKLVNIGQNDQLENISLDAPAGKGPDIFFLAHDNTGSAYLQGLAAEIKLSKDELKGFNKQALKAMNYDNKQLALPAIVETTALFYNKKLVKNAPQTLEEVEANAAKLTDSKKKQYGMLFDAKNFYFNYPFLFGNDDYIFKKNGSEYDIHQLGLNSKHVVKNAERLQKWYDKGYLPKAATHDVMIGLFKEGKVGQFVTGPWNINEYQETFGKDLGVTTLPTDGGKPMKPFLGVRGWYLSEYSKHKYWAKDLMLYITSKDTLQKYTDEMSEITGRVDVKSSNPNLKVFEKQARHAEPMPNIPEMRQVWEPMGNASIFISNGKNPKQALDEATNDITQNIKILHPSQNDKKGD
# Legend:
# Test in all cases: glycan array binding signal (z-score within array); higher = stronger binding
# Details in all cases: glycan notation: IUPAC condensed, linker removed
# Fuc(a1-2)Gal = target: Fuc(a1-2)Gal
# Procedure, shortened: (§1)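 The Consortium for Functional Glycomics database supplied 3228 glycan arrays, of which those lacking an available protein sequence were dropped. The binding signal, a within-array Z-score, was averaged across arrays of the same protein sequence and across linkers. Negative scores can be read as non-binding.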
# Fuc(a1-2)Gal(b1-3)GalNAc = target: Fuc(a1-2)Gal(b1-3)GalNAc
# Procedure, shortened: as §1
# [1] = target: Fuc(a1-2)Gal(b1-3)GalNAc(a1-3)[Fuc(a1-2)]Gal(b1-4)Glc
# Procedure, shortened: as §1
# [2] = target: Fuc(a1-2)Gal(b1-3)GalNAc(a1-3)[Fuc(a1-2)]Gal(b1-4)GlcNAc
# Procedure, shortened: as §1
# [3] = target: Fuc(a1-2)Gal(b1-3)GalNAc(b1-3)Gal
# Procedure, shortened: as §1
# [4] = target: Fuc(a1-2)Gal(b1-3)GalNAc(b1-3)Gal(a1-4)Gal(b1-4)Glc
# Procedure, shortened: as §1
# [5] = target: Fuc(a1-2)Gal(b1-3)GalNAc(b1-4)[Neu5Ac(a2-3)]Gal(b1-4)Glc
# Procedure, shortened: as §1
# Fuc(a1-2)Gal(b1-3)GlcNAc = target: Fuc(a1-2)Gal(b1-3)GlcNAc
# Procedure, shortened: as §1
# [6] = target: Fuc(a1-2)Gal(b1-3)GlcNAc(b1-2)Man(a1-3)[Fuc(a1-2)Gal(b1-3)GlcNAc(b1-2)Man(a1-6)]Man(b1-4)GlcNAc(b1-4)GlcNAc
# Procedure, shortened: as §1
# [7] = target: Fuc(a1-2)Gal(b1-3)GlcNAc(b1-2)Man(a1-3)[Fuc(a1-2)Gal(b1-3)GlcNAc(b1-2)Man(a1-6)]Man(b1-4)GlcNAc(b1-4)[Fuc(a1-6)]GlcNAc
# Procedure, shortened: as §1
# [8] = target: Fuc(a1-2)Gal(b1-3)GlcNAc(b1-3)Gal(b1-4)Glc
# Procedure, shortened: as §1
# [9] = target: Fuc(a1-2)Gal(b1-3)GlcNAc(b1-3)GalNAc
# Procedure, shortened: as §1
# [10] = target: Fuc(a1-2)Gal(b1-3)GlcNAc(b1-3)[Fuc(a1-2)Gal(b1-3)GlcNAc(b1-6)]GalNAc
# Procedure, shortened: as §1
# [11] = target: Fuc(a1-2)Gal(b1-3)GlcNAc(b1-3)[Gal(b1-4)GlcNAc(b1-6)]Gal(b1-4)Glc
# Procedure, shortened: as §1
# [12] = target: Fuc(a1-2)Gal(b1-3)GlcNAc(b1-3)[Neu5Ac(a2-6)Gal(b1-4)GlcNAc(b1-6)]Gal(b1-4)Glc
# Procedure, shortened: as §1
# [13] = target: Fuc(a1-2)Gal(b1-3)GlcNAc6S
# Procedure, shortened: as §1
# [14] = target: Fuc(a1-2)Gal(b1-3)[Fuc(a1-4)]GlcNAc
# Procedure, shortened: as §1
# [15] = target: Fuc(a1-2)Gal(b1-3)[Fuc(a1-4)]GlcNAc(b1-2)Man(a1-3)[Fuc(a1-2)Gal(b1-3)[Fuc(a1-4)]GlcNAc(b1-2)Man(a1-3)]Man(b1-4)GlcNAc(b1-4)GlcNAc
# Procedure, shortened: as §1
# [16] = target: Fuc(a1-2)Gal(b1-3)[Fuc(a1-4)]GlcNAc(b1-2)Man(a1-3)[Fuc(a1-2)Gal(b1-3)[Fuc(a1-4)]GlcNAc(b1-2)Man(a1-6)]Man(b1-4)GlcNAc(b1-4)[Fuc(a1-6)]GlcNAc(b1-4)[Fuc(a1-6)]GlcNAc
# Procedure, shortened: as §1
# [17] = target: Fuc(a1-2)Gal(b1-3)[Fuc(a1-4)]GlcNAc(b1-3)[Fuc(a1-3)[Gal(b1-4)]GlcNAc(b1-6)]Gal(b1-4)Glc
# Procedure, shortened: as §1
# [18] = target: Fuc(a1-2)Gal(b1-3)[Fuc(a1-4)]GlcNAc(b1-3)[Gal(b1-4)GlcNAc(b1-6)]Gal(b1-4)Glc
# Procedure, shortened: as §1
# Fuc(a1-2)Gal(b1-4)Glc = target: Fuc(a1-2)Gal(b1-4)Glc
# Procedure, shortened: as §1
# Fuc(a1-2)Gal(b1-4)Glc6S = target: Fuc(a1-2)Gal(b1-4)Glc6S
# Procedure, shortened: as §1
# Fuc(a1-2)Gal(b1-4)GlcNAc = target: Fuc(a1-2)Gal(b1-4)GlcNAc
# Procedure, shortened: as §1
# [19] = target: Fuc(a1-2)Gal(b1-4)GlcNAc(b1-2)Man
# Procedure, shortened: as §1
# [20] = target: Fuc(a1-2)Gal(b1-4)GlcNAc(b1-2)Man(a1-3)[Fuc(a1-2)Gal(b1-4)GlcNAc(b1-2)Man(a1-6)]Man(b1-4)GlcNAc(b1-4)GlcNAc
# Procedure, shortened: as §1
# [21] = target: Fuc(a1-2)Gal(b1-4)GlcNAc(b1-2)Man(a1-3)[Fuc(a1-2)Gal(b1-4)GlcNAc(b1-2)Man(a1-6)]Man(b1-4)GlcNAc(b1-4)[Fuc(a1-6)]GlcNAc
# Procedure, shortened: as §1
# [22] = target: Fuc(a1-2)Gal(b1-4)GlcNAc(b1-2)[Fuc(a1-2)Gal(b1-4)GlcNAc(b1-4)]Man(a1-3)[Fuc(a1-2)Gal(b1-4)GlcNAc(b1-2)Man(a1-6)]Man(b1-4)GlcNAc(b1-4)GlcNAc
# Procedure, shortened: as §1
# [23] = target: Fuc(a1-2)Gal(b1-4)GlcNAc(b1-3)Gal(b1-4)GlcNAc
# Procedure, shortened: as §1
# [24] = target: Fuc(a1-2)Gal(b1-4)GlcNAc(b1-3)Gal(b1-4)GlcNAc(b1-2)Man(a1-3)[Fuc(a1-2)Gal(b1-4)GlcNAc(b1-3)Gal(b1-4)GlcNAc(b1-2)Man(a1-6)]Man(b1-4)GlcNAc(b1-4)GlcNAc
# Procedure, shortened: as §1
binder,measurement,setting,value
B1,glycan array binding signal (z-score),Fuc(a1-2)Gal,0.137
same,glycan array binding signal (z-score),Fuc(a1-2)Gal(b1-3)GalNAc,-0.088
same,glycan array binding signal (z-score),[1],-0.166
same,glycan array binding signal (z-score),[2],-0.084
same,glycan array binding signal (z-score),[3],-0.071
same,glycan array binding signal (z-score),[4],-0.109
same,glycan array binding signal (z-score),[5],-0.094
same,glycan array binding signal (z-score),Fuc(a1-2)Gal(b1-3)GlcNAc,-0.099
same,glycan array binding signal (z-score),[6],0.385
same,glycan array binding signal (z-score),[7],0.33
same,glycan array binding signal (z-score),[8],-0.104
same,glycan array binding signal (z-score),[9],-0.053
same,glycan array binding signal (z-score),[10],0.127
same,glycan array binding signal (z-score),[11],-0.063
same,glycan array binding signal (z-score),[12],-0.184
same,glycan array binding signal (z-score),[13],-0.138
same,glycan array binding signal (z-score),[14],0.006
same,glycan array binding signal (z-score),[15],0.03
same,glycan array binding signal (z-score),[16],-0.09
same,glycan array binding signal (z-score),[17],-0.101
same,glycan array binding signal (z-score),[18],0.052
same,glycan array binding signal (z-score),Fuc(a1-2)Gal(b1-4)Glc,-0.185
same,glycan array binding signal (z-score),Fuc(a1-2)Gal(b1-4)Glc6S,-0.172
same,glycan array binding signal (z-score),Fuc(a1-2)Gal(b1-4)GlcNAc,-0.079
same,glycan array binding signal (z-score),[19],-0.003
same,glycan array binding signal (z-score),[20],-0.083
same,glycan array binding signal (z-score),[21],0.688
same,glycan array binding signal (z-score),[22],-0.004
same,glycan array binding signal (z-score),[23],-0.09
same,glycan array binding signal (z-score),[24],0.014
